SMILES strings stand for the structures. The list shows a part of the results.

40 molecules from the antibiotic and cytotoxicity screens of Wong et al. (2023) can be followed below.

The first assay relates to HSkMC (human skeletal muscle cells). Put plainly: cytotoxicity call (relative viability < 0.9). As to conditions: 10 µM.
Consider `COc1ccc(CN(C)C[C@@H]2Oc3ccc(NC(=O)Cn4cnnn4)cc3CC(=O)N([C@@H](C)CO)C[C@H]2C)cc1`, for which the cytotoxicity call is “inactive”.

On to `C[C@H]1CN([C@@H](C)CO)C(=O)Cc2cc(NS(=O)(=O)c3cn(C)cn3)ccc2O[C@H]1CN(C)C(=O)NC1CCCCC1`, for which the cytotoxicity call was “inactive”.

Consider `COc1cc([C@@H]2[C@H]3CO[C@@]4(O)C(=O)[C@@H]2C=C([C@H]2Oc5cc(O)cc(O)c5C(=O)[C@@H]2O)[C@@H]34)ccc1O`, for which the cytotoxicity call was “inactive”.

As to `N[C@H]1CCN(c2nc3c(cc2F)c(=O)c(C(=O)O)cn3-c2ccc(F)cc2F)C1`, the cytotoxicity call is “inactive”.

`COc1ccc(-c2cnc3c(c2)C(=O)N([C@@H](C)CO)C[C@H](C)[C@@H](CN(C)C(=O)Cc2ccncc2)O3)cc1`: the cytotoxicity call is “inactive”.

For `C[C@H](CO)N1C[C@H](C)[C@H](CN(C)C(=O)Nc2ccc(F)cc2)Oc2ncc(-c3cc4ccccc4o3)cc2C1=O`, the cytotoxicity call was “inactive”.

For `C[C@H]1CC=CC[C@@H](c2ccc3c(c2)OCO3)NC(=O)[C@H](Cc2ccccc2)N(C)C(=O)c2ccccc2O1`, the cytotoxicity call was “inactive”.

With `C[C@H](CO)N1C[C@H](C)[C@H](CN(C)CC2CCOCC2)Oc2cc(C#Cc3ccccc3F)ccc2S1(=O)=O`, the cytotoxicity call was “inactive”.

For `C[C@H](CO)N1C[C@H](C)[C@H](CN(C)CC2CCCCC2)Oc2ccc(NC(=O)Nc3ccc(C(F)(F)F)cc3)cc2C1=O`, the cytotoxicity call was “active”.

Regarding `Cc1noc(C)c1S(=O)(=O)Nc1ccc2c(c1)CC(=O)N([C@H](C)CO)C[C@@H](C)[C@@H](CN(C)Cc1ccccc1)O2`, the cytotoxicity call was “inactive”.

Regarding `Cc1ccc(S(=O)(=O)Nc2ccc3c(c2)C(=O)N([C@H](C)CO)C[C@H](C)[C@H](CN(C)S(=O)(=O)c2c(C)noc2C)O3)cc1`, the cytotoxicity call is “inactive”.

Consider `O=C(C[C@H]1C=C[C@@H](NS(=O)(=O)c2ccccc2F)[C@@H](CO)O1)NCCCN1CCOCC1`, for which the cytotoxicity call is “inactive”.

Consider `COc1ccc(NC(=O)N(C)C[C@@H]2Oc3c(NS(C)(=O)=O)cccc3C(=O)N([C@@H](C)CO)C[C@@H]2C)cc1`, for which the cytotoxicity call is “inactive”.

For `Cc1ccc(S(=O)(=O)Nc2ccc3c(c2)C(=O)N([C@@H](C)CO)C[C@@H](C)[C@@H](CN(C)Cc2ccc(Cl)c(Cl)c2)O3)cc1`, the cytotoxicity call is “active”.

In the case of `COc1ccc(C(=O)Nc2ccc3c(c2)C(=O)N(C)[C@H]2CC[C@H](CC(=O)NCC4CC4)O[C@H]2CO3)cc1`, the cytotoxicity call was “inactive”.

Consider `CN(C)CC#Cc1ccc([C@H]2[C@H]3CN(C(=O)CN(C)C)CC(=O)N3[C@H]2CO)cc1`, for which the cytotoxicity call was “inactive”.

As to `C[C@H](CO)N1C[C@H](C)[C@H](CN(C)S(=O)(=O)c2cn(C)cn2)Oc2c(NC(=O)c3ccncc3)cccc2C1=O`, the cytotoxicity call was “inactive”.

For the molecule `C[C@H]1CN([C@@H](C)CO)C(=O)c2cccc(NS(=O)(=O)c3ccc(Cl)cc3)c2O[C@@H]1CN(C)Cc1ccc(C(=O)Nc2ccccc2N)cc1`, the cytotoxicity call is “inactive”.

Turning to `Cc1noc(C)c1NC(=O)Nc1cccc2c1O[C@H](CN(C)C(=O)NC(C)C)[C@@H](C)CN([C@@H](C)CO)C2=O`, the cytotoxicity call was “inactive”.

`O=C(C[C@@H]1C[C@@H]2c3cc(NC(=O)C4CCOCC4)ccc3O[C@@H]2[C@@H](CO)O1)NCc1ccc2c(c1)OCO2`: the cytotoxicity call is “inactive”.

Consider `C[C@H](O)C(=O)Nc1c(I)c(C(=O)NC(CO)CO)c(I)c(C(=O)NC(CO)CO)c1I`, for which the cytotoxicity call is “inactive”.

Turning to `CCOC(=O)c1nnn(-c2nonc2N)c1CN1CCSCC1`, the cytotoxicity call is “inactive”.

As to `C[C@H](CO)N1C[C@H](C)[C@H](CN(C)Cc2ccc(-c3ccccc3)cc2)Oc2c(NC(=O)C3CCOCC3)cccc2C1=O`, the cytotoxicity call is “inactive”.

In the case of `C[C@@H]1CN([C@@H](C)CO)C(=O)c2cc(C#CC(C)(C)O)cnc2O[C@H]1CN(C)C(=O)CN(C)C`, the cytotoxicity call is “inactive”.

Take `COc1ccc(NC(=O)N(C)C[C@H]2Oc3c(NC(=O)Nc4ccc(C(F)(F)F)cc4)cccc3C(=O)N([C@H](C)CO)C[C@H]2C)cc1`: the cytotoxicity call is “inactive”.

For the molecule `O=C(/C=N/O)NCc1ccccn1`, the cytotoxicity call is “inactive”.

With `C[C@@H]1CCCCO[C@H](CN(C)C(=O)Nc2ccc3c(c2)OCO3)[C@H](C)CN([C@H](C)CO)C(=O)c2cc(NC(=O)C3CCCCC3)ccc2O1`, the cytotoxicity call was “inactive”.

As for `CCN1CCCC[C@@H]1C(=O)O`, the cytotoxicity call is “inactive”.

Another assay concerns HepG2. Nature of the assay: cytotoxicity call (relative viability < 0.9). As to conditions: 10 µM.
Turning to `Cn1nnc2cc(CO)ccc21`, the cytotoxicity call was “inactive”.

`C[C@@H]1CN([C@H](C)CO)C(=O)c2cc(NC(=O)Nc3ccc(F)cc3)ccc2O[C@@H](C)CCCCO[C@H]1CN(C)S(=O)(=O)c1ccccc1`: the cytotoxicity call is “inactive”.

In the case of `O=C(C[C@@H]1CC[C@H](NC(=O)c2ccc(F)cc2)[C@@H](CO)O1)NCc1ccncn1`, the cytotoxicity call was “inactive”.

Turning to `N#Cc1ccc(C(c2ccc(C#N)cc2)n2cncn2)cc1`, the cytotoxicity call was “inactive”.

On to `Cc1cc(C(=O)Nc2cccc3c2O[C@@H](CN(C)Cc2ccc(C(=O)O)cc2)[C@@H](C)CN([C@@H](C)CO)C3=O)n(C)n1`, for which the cytotoxicity call is “inactive”.

With `Cc1ccc(S(=O)(=O)Nc2ccc3c(c2)CC(=O)N([C@H](C)CO)C[C@@H](C)[C@H](CN(C)S(=O)(=O)c2cn(C)cn2)O3)cc1`, the cytotoxicity call was “inactive”.

Regarding `CN(Cc1ccccc1)C[C@H]1C[C@@H](c2ccc(CO)cc2)O[C@H](c2ccc(NC(=O)CCCCCCC(=O)NO)cc2)O1`, the cytotoxicity call was “inactive”.

Take `NCc1cccc(O)c1`: the cytotoxicity call was “inactive”.

For `COc1ccc(CN(C)C[C@H]2Oc3ccc(NC(=O)CCN4CCOCC4)cc3CC(=O)N([C@@H](C)CO)C[C@@H]2C)cc1`, the cytotoxicity call was “inactive”.

Regarding `Cc1ccc(S(=O)(=O)Nc2cccc3c2O[C@H](CN(C)S(=O)(=O)c2c(C)noc2C)[C@H](C)CN([C@H](C)CO)C3=O)cc1`, the cytotoxicity call is “inactive”.

For the molecule `COc1ccc(CNC(=O)C[C@@H]2CC[C@H]3[C@H](COc4ccc(NC(=O)C(C)C)cc4C(=O)N3C)O2)cc1`, the cytotoxicity call was “inactive”.

Take `COc1ccc(NC(=O)N(C)C[C@@H]2Oc3ccc(NC(=O)CCN4CCOCC4)cc3CC(=O)N([C@H](C)CO)C[C@@H]2C)cc1`: the cytotoxicity call was “inactive”.

For `COc1ccc(CN(C)C[C@@H]2Oc3ccc(NC(=O)Cn4cnnn4)cc3CC(=O)N([C@@H](C)CO)C[C@H]2C)cc1`, the cytotoxicity call was “inactive”.

Take `C[C@H]1CN([C@@H](C)CO)C(=O)Cc2cc(NS(=O)(=O)c3cn(C)cn3)ccc2O[C@H]1CN(C)C(=O)NC1CCCCC1`: the cytotoxicity call was “inactive”.

Regarding `COc1cc([C@@H]2[C@H]3CO[C@@]4(O)C(=O)[C@@H]2C=C([C@H]2Oc5cc(O)cc(O)c5C(=O)[C@@H]2O)[C@@H]34)ccc1O`, the cytotoxicity call was “inactive”.

For `N[C@H]1CCN(c2nc3c(cc2F)c(=O)c(C(=O)O)cn3-c2ccc(F)cc2F)C1`, the cytotoxicity call is “inactive”.

As to `COc1ccc(-c2cnc3c(c2)C(=O)N([C@@H](C)CO)C[C@H](C)[C@@H](CN(C)C(=O)Cc2ccncc2)O3)cc1`, the cytotoxicity call is “inactive”.

Regarding `C[C@H](CO)N1C[C@H](C)[C@H](CN(C)C(=O)Nc2ccc(F)cc2)Oc2ncc(-c3cc4ccccc4o3)cc2C1=O`, the cytotoxicity call was “inactive”.

With `C[C@H]1CC=CC[C@@H](c2ccc3c(c2)OCO3)NC(=O)[C@H](Cc2ccccc2)N(C)C(=O)c2ccccc2O1`, the cytotoxicity call is “inactive”.

Turning to `C[C@H](CO)N1C[C@H](C)[C@H](CN(C)CC2CCOCC2)Oc2cc(C#Cc3ccccc3F)ccc2S1(=O)=O`, the cytotoxicity call is “inactive”.

Take `C[C@H](CO)N1C[C@H](C)[C@H](CN(C)CC2CCCCC2)Oc2ccc(NC(=O)Nc3ccc(C(F)(F)F)cc3)cc2C1=O`: the cytotoxicity call is “active”.

Take `Cc1noc(C)c1S(=O)(=O)Nc1ccc2c(c1)CC(=O)N([C@H](C)CO)C[C@@H](C)[C@@H](CN(C)Cc1ccccc1)O2`: the cytotoxicity call is “inactive”.

With `Cc1ccc(S(=O)(=O)Nc2ccc3c(c2)C(=O)N([C@H](C)CO)C[C@H](C)[C@H](CN(C)S(=O)(=O)c2c(C)noc2C)O3)cc1`, the cytotoxicity call was “inactive”.

Consider `O=C(C[C@H]1C=C[C@@H](NS(=O)(=O)c2ccccc2F)[C@@H](CO)O1)NCCCN1CCOCC1`, for which the cytotoxicity call was “inactive”.

Regarding `COc1ccc(NC(=O)N(C)C[C@@H]2Oc3c(NS(C)(=O)=O)cccc3C(=O)N([C@@H](C)CO)C[C@@H]2C)cc1`, the cytotoxicity call is “inactive”.

Turning to `Cc1ccc(S(=O)(=O)Nc2ccc3c(c2)C(=O)N([C@@H](C)CO)C[C@@H](C)[C@@H](CN(C)Cc2ccc(Cl)c(Cl)c2)O3)cc1`, the cytotoxicity call was “active”.

Take `COc1ccc(C(=O)Nc2ccc3c(c2)C(=O)N(C)[C@H]2CC[C@H](CC(=O)NCC4CC4)O[C@H]2CO3)cc1`: the cytotoxicity call was “inactive”.

Regarding `CN(C)CC#Cc1ccc([C@H]2[C@H]3CN(C(=O)CN(C)C)CC(=O)N3[C@H]2CO)cc1`, the cytotoxicity call was “inactive”.

Consider `C[C@H](CO)N1C[C@H](C)[C@H](CN(C)S(=O)(=O)c2cn(C)cn2)Oc2c(NC(=O)c3ccncc3)cccc2C1=O`, for which the cytotoxicity call is “inactive”.

As for `C[C@H]1CN([C@@H](C)CO)C(=O)c2cccc(NS(=O)(=O)c3ccc(Cl)cc3)c2O[C@@H]1CN(C)Cc1ccc(C(=O)Nc2ccccc2N)cc1`, the cytotoxicity call is “inactive”.

Turning to `Cc1noc(C)c1NC(=O)Nc1cccc2c1O[C@H](CN(C)C(=O)NC(C)C)[C@@H](C)CN([C@@H](C)CO)C2=O`, the cytotoxicity call is “inactive”.

As to `O=C(C[C@@H]1C[C@@H]2c3cc(NC(=O)C4CCOCC4)ccc3O[C@@H]2[C@@H](CO)O1)NCc1ccc2c(c1)OCO2`, the cytotoxicity call was “inactive”.

In the case of `C[C@H](O)C(=O)Nc1c(I)c(C(=O)NC(CO)CO)c(I)c(C(=O)NC(CO)CO)c1I`, the cytotoxicity call is “inactive”.

Regarding `CCOC(=O)c1nnn(-c2nonc2N)c1CN1CCSCC1`, the cytotoxicity call was “inactive”.

For the molecule `C[C@H](CO)N1C[C@H](C)[C@H](CN(C)Cc2ccc(-c3ccccc3)cc2)Oc2c(NC(=O)C3CCOCC3)cccc2C1=O`, the cytotoxicity call was “inactive”.

In the case of `C[C@@H]1CN([C@@H](C)CO)C(=O)c2cc(C#CC(C)(C)O)cnc2O[C@H]1CN(C)C(=O)CN(C)C`, the cytotoxicity call is “inactive”.

For the molecule `COc1ccc(NC(=O)N(C)C[C@H]2Oc3c(NC(=O)Nc4ccc(C(F)(F)F)cc4)cccc3C(=O)N([C@H](C)CO)C[C@H]2C)cc1`, the cytotoxicity call was “inactive”.

Consider `O=C(/C=N/O)NCc1ccccn1`, for which the cytotoxicity call was “active”.

`C[C@@H]1CCCCO[C@H](CN(C)C(=O)Nc2ccc3c(c2)OCO3)[C@H](C)CN([C@H](C)CO)C(=O)c2cc(NC(=O)C3CCCCC3)ccc2O1`: the cytotoxicity call is “inactive”.

For `CCN1CCCC[C@@H]1C(=O)O`, the cytotoxicity call was “inactive”.
